# Data: PubChem BioAssay (NCATS)
# This list was built around the results that the source calls inconclusive (neither active nor inactive); the mix of calls is not that of the screen. For some assays here: Potencies of inconclusive entries are left out as doubtful fits. For some assays here: A note “side channel” means that the fit belongs to a control or component signal, not to the main read-out. Active and inactive are the calls of the source. Unless noted, calls come from the whole dose curve; as a rule, active = well fitted curve in the direction sought with a large enough effect; inconclusive = small, poorly fitted or top-dose-only effect, or another doubt; inactive = no such curve, though single readings can be large; an effect the other way counts as inactive or inconclusive.
# How the values were obtained:
# [1] = NS1 protein of Zika virus - qHTS assay to identify small molecule inhibitors in human HEK 293 cells (AID 1347053); note: nearly all actives have a fitted effect of over 55% in size; note: potency is the fitted concentration of half-maximal effect;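 for activity change, negative = inhibition: plate controls were infected untreated cells for no effect and uninfected cells for full effect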
# Procedure, shortened: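 HEK 293 cells, seeded 20 h at 37 C, were pretreated with compound 1 h, then infected with ZIKV MR766 (MOI = 0.5) for 24 h. NS1 was read by TR-FRET with two anti-NS1 antibodies, normalized to uninfected and infected wells.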
# [2] = qHTS for Inhibitors of Plasmodium falciparum (HB3) proliferation (AID 504318); note: nearly all actives have a fitted effect of over 60% in size; note: potency is the fitted concentration of half-maximal effect;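 for activity change, negative = inhibition: 0% = DMSO vehicle and -100% = artemisinin control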; details: P. falciparum HB3 in erythrocytes, SYBR Green DNA, 72 h; activity change, negative = inhibition: at 7.21 µM (top of the series)
# Procedure, shortened: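 Erythrocytes infected with P. falciparum line (0.3% parasitemia, 2.5% hematocrit final) incubated with compounds 72 h at 37 °C, 5% CO2; SYBR Green lysis buffer added, fluorescence read next day. Normalized to 0.29 uM artemisinin and DMSO.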
# [3] = Stat Signaling Pathway (AID 446; active = well fitted curve in either direction with a large enough effect, not every such curve was filed as active; inconclusive = small, poorly fitted or top-dose-only effect, or another doubt;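 note: ME-180 cervical cancer cells given 40 pM IL-6 alongside compound; SIE-controlled beta-lactamase reporter measured as 460/530 nm FRET emission ratio; top concentration of the series differs between compounds; % is set by controls: 0 for no effect and ±100 for the full control effect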); details: ME-180 SIE beta-lactamase reporter, IL-6 stimulated, 5 h
# Procedure, shortened: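 ME-180 SIE-bla cells; overnight plating; cpd + IL-6 40 pM, 5 h, 37 C; LiveBLAzer 2.5 h RT; 460/530 nm emission ratio. Normalized to 300 pM IL-6 and 125 nM JAK inhibitor controls.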
# [4] = target: Muscarinic acetylcholine receptor M1 (Rattus norvegicus) (UniProt P08482); test: qHTS Assay for Antagonists of Acetylcholine Muscarinic M1 Receptor: Measurement of IP-One Response (AID 944); note: nearly all actives have a fitted effect of over 75% in size; note: potency is the fitted concentration of half-maximal effect
# [5] = qHTS for Inhibitors of ATXN expression: Validation (AID 588378); note: nearly all actives have a fitted effect of over 75% in size; note: potency is the fitted concentration of half-maximal effect; for activity change, negative = inhibition: % is set by controls: 0 for no effect and ±100 for the full control effect
# Procedure, shortened: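 After a 2 h attachment and 24 h compound incubation, HEK293-ATXN2-FFLuc wells are read for fluorescence at 405 nm excitation/525 nm emission as a viability measure, then for Bright-Glo luminescence reflecting ATXN2 expression.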
# [6] = target: Glutaminase kidney isoform, mitochondrial (Homo sapiens) (UniProt O94925); test: qHTS for Inhibitors of Glutaminase (GLS): LOPAC Validation (AID 624146); note: nearly all actives have a fitted effect of over 60% in size; note: potency is the fitted concentration of half-maximal effect;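 for activity change, negative = inhibition: glutamate product detected by oxidase and peroxidase coupled Amplex red fluorescence gain; % is set by controls: 0 for no effect and ±100 for the full control effect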
# Procedure, shortened: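 Human kidney-isoform GLS in 45 mM KH2PO4 pH 8.2, 0.02% Tween-20, with compound, started with 1mM L-Glutamine (added stock). Glutamate oxidase/HRP/Amplex red coupled fluorescence read at start and after 30 min at RT.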
# [7] = target: Endonuclease 4 (Escherichia coli (strain K12)) (UniProt P0A6C1); test: Counterscreen for APE1 Inhibitors: qHTS Validation Assay for Inhibitors of Endonuclease IV (AID 1708); note: potency is the fitted concentration of half-maximal effect
# Procedure, shortened: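 qHTS concentration-response format; LOPAC1280 tested under APE1-screen conditions. 2 nM enzyme, 15 min compound preincubation at RT, then 50 nM TAMRA/BHQ-2 abasic substrate; kinetic fluorescence read, three reads at 60 s intervals.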
# [8] = target: Phospholipid hydroperoxide glutathione peroxidase GPX4 (Homo sapiens) (UniProt P36969); test: Primary qHTS Assay for Inhibitors of Recombinant Selenoprotein Glutathione Peroxidase 4 (GPX4) (AID 1845192); details: activity change, negative = inhibition: at 50 µM (top of the series) unless noted; note: % is set by controls: 0 for no effect and ±100 for the full control effect; nearly all actives have a fitted effect of over 65% in size
# Procedure, shortened: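 NADPH consumption, followed by fluorescence at 340/450 nm between 0 and 15 min, reports GPX4 activity via coupled glutathione reductase (100 nM). Enzyme 200 nM was pre-exposed to compound 30 min; 0.5 mM cumene hydroperoxide and 1 mM GSH served as substrates.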
# [9] = target: Ferritin light chain (Equus caballus) (UniProt P02791); test: qHTS Validation Assay for Identification of Novel General Anesthetics (AID 2323); note: potency is the fitted concentration of half-maximal effect
# Procedure, shortened: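 Normalized fluorescence response, scaled between free 1-AMA and 1-AMA/apoferritin complex, fitted to a four-parameter Hill equation for concentration-effect values. Binding mix: 10 uM horse-spleen apoferritin, 50% saturated 1-AMA in PBS; read 380/535 nm after 10 min.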
# [10] = Quantitative high throughput screen for delayed death inhibitors of the malarial parasite plastid, 96 hour incubation (AID 488745); note: potency is the fitted concentration of half-maximal effect; nearly all actives have a fitted effect of over 70% in size
# Procedure, shortened: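 Luciferase-expressing P. falciparum in erythrocytes (2% hematocrit, 0.1% parasitemia) incubated with compound for 96 h at 37 C, 5% CO2, in RPMI 1640 with 0.5% Albumax. Growth inhibition read as decreased luminescence.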
# [11] = target: Thioredoxin reductase 1, cytoplasmic (Rattus norvegicus) (UniProt O89049); test: qHTS Assay for Inhibitors of Mammalian Selenoprotein Thioredoxin Reductase 1 (TrxR1) (AID 488773); details: Potency: inhibition; note: nearly all actives have a fitted effect of over 40% in size; note: potency is the fitted concentration of half-maximal effect;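 for activity change, negative = inhibition: drop in NADPH fluorescence over an 8 min run after selenite addition; % is set by controls: 0 for no effect and ±100 for the full control effect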
# Procedure, shortened: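 Steps: enzyme (90 nM) plus NADPH (400 uM final), 5 min at ~22 deg C; compound added, 15 min; selenite (400 uM final) added; fluorescence followed for 8 min. Concentration-response curves derived from the normalized delta values.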
# [12] = target: Ubiquitin carboxyl-terminal hydrolase 1 (Homo sapiens) (UniProt O94782); test: Inhibitors of USP1/UAF1: Pilot qHTS (AID 504865);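 note: rhodamine fluorescence freed from ubiquitin-rhodamine substrate followed over time; potency is the fitted concentration of half-maximal effect; nearly all actives have a fitted effect of over 35% in size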
# Procedure, shortened: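 Enzyme-free wells gave the negative control, while test wells held 1nM USP1/UAF1 preincubated with compound for 15 min at room temperature. Ub-Rho at 150nM final started the reaction, and fluorescence at 480/540 nm was recorded kinetically.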
# [13] = target: ATPase family AAA domain-containing protein 5 (Homo sapiens) (UniProt Q96QE3); test: Validation screen for small molecules that inhibit ELG1-dependent DNA repair in human embryonic kidney (HEK293T) cells expressing luciferase-tagged ELG1 (AID 493107); details: HEK293T ELG1-luciferase level, luminescence, 5-fluorouridine co-treatment, 16 h; activity change, negative = decrease: at 46.1 µM (top of the series); note: potency is the fitted concentration of half-maximal effect; nearly all actives have a fitted effect of over 70% in size
# Procedure, shortened: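 HEK293T cells expressing luciferase-tagged ELG1, 2,000 per well, treated with 5-fluorouridine plus compound for 16 h at 37 C. ONE-Glo luminescence after 30 min at room temperature reports ELG1 reporter level.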
# Papain (Carica papaya) = Papain (Carica papaya) (UniProt P00784); test: Primary qHTS assay for inhibitors of the protease papain (AID 1645873);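 note: papain turnover of Z-FR-AMC read as the AMC fluorescence gain over 10 min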; note: potency is the fitted concentration of half-maximal effect
# [14] = target: Mitogen-activated protein kinase 10 (Mus musculus) (UniProt Q61831); test: JNK3 AlphaScreen Assay (AID 530; active = well fitted curve in either direction with a large enough effect, not every such curve was filed as active; inconclusive = small, poorly fitted or top-dose-only effect, or another doubt;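 note: kinase came from lysate of stimulated human HepG2 cells; signal reports phosphorylation of biotinylated GST-cJun 1-79 at Ser73 with 10 µM ATP; potency is the fitted concentration of half-maximal effect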); details: JNK3 lysate, c-Jun phosphorylation; activity change, negative = inhibition: at 57.1 µM (top of the series)
# Procedure, shortened: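 Compound titrations were preincubated 15 minutes at room temperature with substrate, antibody and pre-activated JNK3-containing HepG2 lysate. Reactions were started with 10 uM ATP and stopped with EDTA-containing bead buffer for AlphaScreen detection.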
# [15] = qHTS Assay for Identification of Small Molecule Agonists for Thrombopoietin (TPO) Signaling Pathway (AID 917); note: potency is the fitted concentration of half-maximal effect
# Procedure, shortened: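 IL-3-dependent murine pro-B Ba/F3 cells, stably transfected with human TPO receptor and GpIIb-promoter luciferase, are incubated 24 hrs at 37 C with test compound and 26 pM TPO; luciferase signal is read after 10 min at room temperature.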
# [16] = qHTS for Inhibitors of ATXN expression: Validation of Cytotoxic Assay (AID 588349); note: potency is the fitted concentration of half-maximal effect
# Procedure, shortened: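 HEK293 cells treated with titrated compound for 72 hr at 37 degrees C; viability read as intracellular ATP by CellTiter Glo luminescence.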
# [17] = target: Calcium and integrin-binding protein 1 (Homo sapiens) (UniProt Q99828); test: Validation qHTS for Identification of Calcium Integrin Binding protein 1 (CIB1) Competitor (AID 1508618); note: potency is the fitted concentration of half-maximal effect
# Procedure, shortened: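 CIB1-GST (1 uM final) in 5 mM HEPES pH 7.4, 125 mM NaCl, 5 mM CaCl2, 0.01% Tween20 was preincubated 15 min at room temperature with compound (up to 114 uM), then FITC-alphaIIb peptide (100 nM) added for 15 min; fluorescence polarization read.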
# [18] = qHTS for differential inhibitors of proliferation of Plasmodium falciparum line D10 (AID 1877);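 note: potency is the fitted concentration of half-maximal effect; parasites grown with compound for 72 h before DNA staining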
# [19] = target: Tyrosine-protein phosphatase non-receptor type substrate 1 (Homo sapiens) + Leukocyte surface antigen CD47 (Homo sapiens) (UniProt P78324+Q08722); test: CD47-SIRPalpha protein protein interaction - LANCE assay qHTS validation (AID 1347057; active = well fitted curve in the direction sought with a large enough effect in the signal ratio, with a control signal flat, not every such curve was filed as active; inconclusive = small, poorly fitted or top-dose-only effect, or effect the other way, or a change in a side signal; inactive = no such curve, though single readings can be large or run the other way; the % refers to the signal ratio; note: potency is the fitted concentration of half-maximal effect)
# Procedure, shortened: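 First, His-tagged CD47 and Eu-labelled anti-His antibody met the compound for 30 min; next, site-specifically biotinylated SIRPalpha was added for 30 min; finally streptavidin-APC was added before reading the TR-FRET ratio.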
# Tags give direction and shape of the fitted curve.
# Sequence of UniProt P36969 (P36969 whole entry, looked up): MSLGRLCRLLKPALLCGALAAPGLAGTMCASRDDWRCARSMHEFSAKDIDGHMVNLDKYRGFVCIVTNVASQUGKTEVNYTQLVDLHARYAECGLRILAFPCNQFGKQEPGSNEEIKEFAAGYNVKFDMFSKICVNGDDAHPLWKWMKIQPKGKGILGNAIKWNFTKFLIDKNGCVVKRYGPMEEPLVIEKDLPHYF
# Sequence of UniProt O94925 (O94925 whole entry, looked up, canonical isoform): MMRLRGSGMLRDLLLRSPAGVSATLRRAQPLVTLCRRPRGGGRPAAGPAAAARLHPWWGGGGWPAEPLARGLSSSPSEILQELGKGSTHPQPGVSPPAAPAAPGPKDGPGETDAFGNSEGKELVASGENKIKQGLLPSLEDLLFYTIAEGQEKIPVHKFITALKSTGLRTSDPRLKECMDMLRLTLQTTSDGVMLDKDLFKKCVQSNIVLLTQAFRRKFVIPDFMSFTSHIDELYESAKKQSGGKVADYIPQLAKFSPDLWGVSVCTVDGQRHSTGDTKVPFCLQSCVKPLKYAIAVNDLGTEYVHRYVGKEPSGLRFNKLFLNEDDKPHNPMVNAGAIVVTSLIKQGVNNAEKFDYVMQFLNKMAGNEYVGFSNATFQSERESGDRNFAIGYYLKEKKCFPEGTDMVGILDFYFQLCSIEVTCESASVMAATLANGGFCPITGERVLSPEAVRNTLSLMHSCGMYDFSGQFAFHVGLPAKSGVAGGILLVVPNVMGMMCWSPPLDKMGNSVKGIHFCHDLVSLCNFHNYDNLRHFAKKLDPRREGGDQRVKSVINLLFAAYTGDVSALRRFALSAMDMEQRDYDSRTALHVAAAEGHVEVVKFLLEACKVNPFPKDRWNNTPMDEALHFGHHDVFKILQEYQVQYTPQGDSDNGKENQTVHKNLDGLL
# Sequence of UniProt O89049 (O89049 whole entry, looked up): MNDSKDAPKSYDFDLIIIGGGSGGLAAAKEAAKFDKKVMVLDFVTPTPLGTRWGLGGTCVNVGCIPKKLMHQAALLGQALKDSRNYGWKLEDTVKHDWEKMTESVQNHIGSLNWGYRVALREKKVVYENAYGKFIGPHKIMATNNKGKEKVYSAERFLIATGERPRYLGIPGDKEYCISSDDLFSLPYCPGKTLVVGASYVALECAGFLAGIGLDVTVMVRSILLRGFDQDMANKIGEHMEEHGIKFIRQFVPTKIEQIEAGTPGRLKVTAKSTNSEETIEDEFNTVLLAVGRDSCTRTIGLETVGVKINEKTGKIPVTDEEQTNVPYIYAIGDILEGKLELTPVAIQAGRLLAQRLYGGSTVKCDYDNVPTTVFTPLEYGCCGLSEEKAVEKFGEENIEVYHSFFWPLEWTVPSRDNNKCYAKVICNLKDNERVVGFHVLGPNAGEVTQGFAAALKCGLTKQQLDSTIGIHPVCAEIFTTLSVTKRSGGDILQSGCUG
# Sequence of UniProt P02791 (P02791 whole entry, looked up): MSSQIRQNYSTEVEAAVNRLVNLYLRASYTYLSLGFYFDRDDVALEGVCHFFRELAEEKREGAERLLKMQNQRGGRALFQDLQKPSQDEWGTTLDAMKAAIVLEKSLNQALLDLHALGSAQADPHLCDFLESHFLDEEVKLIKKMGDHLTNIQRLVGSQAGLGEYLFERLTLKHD
# Sequence of UniProt P00784 (P00784 whole entry, looked up): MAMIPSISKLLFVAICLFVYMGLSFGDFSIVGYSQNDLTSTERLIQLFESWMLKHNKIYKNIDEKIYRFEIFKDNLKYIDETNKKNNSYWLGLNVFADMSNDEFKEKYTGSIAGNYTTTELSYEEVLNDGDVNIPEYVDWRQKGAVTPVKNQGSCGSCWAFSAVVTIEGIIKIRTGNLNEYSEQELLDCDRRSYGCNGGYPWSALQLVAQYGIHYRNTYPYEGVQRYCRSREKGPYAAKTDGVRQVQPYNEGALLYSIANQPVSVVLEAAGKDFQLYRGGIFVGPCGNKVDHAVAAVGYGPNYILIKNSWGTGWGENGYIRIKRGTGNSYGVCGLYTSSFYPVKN
# Sequence of UniProt P08482 (P08482 whole entry, looked up): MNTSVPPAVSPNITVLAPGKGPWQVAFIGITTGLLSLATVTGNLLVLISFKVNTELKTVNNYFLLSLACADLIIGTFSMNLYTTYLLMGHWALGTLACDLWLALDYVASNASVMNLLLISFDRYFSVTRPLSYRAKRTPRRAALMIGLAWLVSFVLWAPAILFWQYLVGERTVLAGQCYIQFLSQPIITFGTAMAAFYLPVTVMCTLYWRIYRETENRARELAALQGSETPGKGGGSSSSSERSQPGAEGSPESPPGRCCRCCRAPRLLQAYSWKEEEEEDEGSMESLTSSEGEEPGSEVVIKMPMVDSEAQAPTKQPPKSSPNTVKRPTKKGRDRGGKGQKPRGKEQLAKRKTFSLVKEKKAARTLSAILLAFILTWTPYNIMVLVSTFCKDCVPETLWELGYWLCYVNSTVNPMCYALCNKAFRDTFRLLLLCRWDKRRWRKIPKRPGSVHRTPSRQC
# Sequence of UniProt O94782 (O94782 whole entry, looked up): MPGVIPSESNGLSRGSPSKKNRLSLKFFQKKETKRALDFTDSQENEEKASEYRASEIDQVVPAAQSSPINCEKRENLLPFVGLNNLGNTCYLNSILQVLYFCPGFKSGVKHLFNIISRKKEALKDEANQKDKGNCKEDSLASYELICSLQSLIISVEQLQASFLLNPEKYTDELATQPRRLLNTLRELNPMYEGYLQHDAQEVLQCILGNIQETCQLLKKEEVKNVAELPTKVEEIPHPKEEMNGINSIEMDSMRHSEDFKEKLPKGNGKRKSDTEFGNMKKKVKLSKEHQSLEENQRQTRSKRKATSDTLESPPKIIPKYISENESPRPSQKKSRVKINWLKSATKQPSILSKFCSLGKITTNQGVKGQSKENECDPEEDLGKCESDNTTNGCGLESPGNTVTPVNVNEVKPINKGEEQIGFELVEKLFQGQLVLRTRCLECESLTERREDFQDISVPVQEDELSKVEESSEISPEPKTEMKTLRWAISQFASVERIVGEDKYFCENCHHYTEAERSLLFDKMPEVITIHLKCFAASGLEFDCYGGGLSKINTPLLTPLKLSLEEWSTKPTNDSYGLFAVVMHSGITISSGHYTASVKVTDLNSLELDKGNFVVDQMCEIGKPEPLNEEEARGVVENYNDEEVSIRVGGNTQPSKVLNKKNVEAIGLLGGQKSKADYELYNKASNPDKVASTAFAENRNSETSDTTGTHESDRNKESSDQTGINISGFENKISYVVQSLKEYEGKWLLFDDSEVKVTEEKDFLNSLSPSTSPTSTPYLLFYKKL
# Sequence of UniProt Q96QE3 (Q96QE3 whole entry, looked up, the tested form may be a part): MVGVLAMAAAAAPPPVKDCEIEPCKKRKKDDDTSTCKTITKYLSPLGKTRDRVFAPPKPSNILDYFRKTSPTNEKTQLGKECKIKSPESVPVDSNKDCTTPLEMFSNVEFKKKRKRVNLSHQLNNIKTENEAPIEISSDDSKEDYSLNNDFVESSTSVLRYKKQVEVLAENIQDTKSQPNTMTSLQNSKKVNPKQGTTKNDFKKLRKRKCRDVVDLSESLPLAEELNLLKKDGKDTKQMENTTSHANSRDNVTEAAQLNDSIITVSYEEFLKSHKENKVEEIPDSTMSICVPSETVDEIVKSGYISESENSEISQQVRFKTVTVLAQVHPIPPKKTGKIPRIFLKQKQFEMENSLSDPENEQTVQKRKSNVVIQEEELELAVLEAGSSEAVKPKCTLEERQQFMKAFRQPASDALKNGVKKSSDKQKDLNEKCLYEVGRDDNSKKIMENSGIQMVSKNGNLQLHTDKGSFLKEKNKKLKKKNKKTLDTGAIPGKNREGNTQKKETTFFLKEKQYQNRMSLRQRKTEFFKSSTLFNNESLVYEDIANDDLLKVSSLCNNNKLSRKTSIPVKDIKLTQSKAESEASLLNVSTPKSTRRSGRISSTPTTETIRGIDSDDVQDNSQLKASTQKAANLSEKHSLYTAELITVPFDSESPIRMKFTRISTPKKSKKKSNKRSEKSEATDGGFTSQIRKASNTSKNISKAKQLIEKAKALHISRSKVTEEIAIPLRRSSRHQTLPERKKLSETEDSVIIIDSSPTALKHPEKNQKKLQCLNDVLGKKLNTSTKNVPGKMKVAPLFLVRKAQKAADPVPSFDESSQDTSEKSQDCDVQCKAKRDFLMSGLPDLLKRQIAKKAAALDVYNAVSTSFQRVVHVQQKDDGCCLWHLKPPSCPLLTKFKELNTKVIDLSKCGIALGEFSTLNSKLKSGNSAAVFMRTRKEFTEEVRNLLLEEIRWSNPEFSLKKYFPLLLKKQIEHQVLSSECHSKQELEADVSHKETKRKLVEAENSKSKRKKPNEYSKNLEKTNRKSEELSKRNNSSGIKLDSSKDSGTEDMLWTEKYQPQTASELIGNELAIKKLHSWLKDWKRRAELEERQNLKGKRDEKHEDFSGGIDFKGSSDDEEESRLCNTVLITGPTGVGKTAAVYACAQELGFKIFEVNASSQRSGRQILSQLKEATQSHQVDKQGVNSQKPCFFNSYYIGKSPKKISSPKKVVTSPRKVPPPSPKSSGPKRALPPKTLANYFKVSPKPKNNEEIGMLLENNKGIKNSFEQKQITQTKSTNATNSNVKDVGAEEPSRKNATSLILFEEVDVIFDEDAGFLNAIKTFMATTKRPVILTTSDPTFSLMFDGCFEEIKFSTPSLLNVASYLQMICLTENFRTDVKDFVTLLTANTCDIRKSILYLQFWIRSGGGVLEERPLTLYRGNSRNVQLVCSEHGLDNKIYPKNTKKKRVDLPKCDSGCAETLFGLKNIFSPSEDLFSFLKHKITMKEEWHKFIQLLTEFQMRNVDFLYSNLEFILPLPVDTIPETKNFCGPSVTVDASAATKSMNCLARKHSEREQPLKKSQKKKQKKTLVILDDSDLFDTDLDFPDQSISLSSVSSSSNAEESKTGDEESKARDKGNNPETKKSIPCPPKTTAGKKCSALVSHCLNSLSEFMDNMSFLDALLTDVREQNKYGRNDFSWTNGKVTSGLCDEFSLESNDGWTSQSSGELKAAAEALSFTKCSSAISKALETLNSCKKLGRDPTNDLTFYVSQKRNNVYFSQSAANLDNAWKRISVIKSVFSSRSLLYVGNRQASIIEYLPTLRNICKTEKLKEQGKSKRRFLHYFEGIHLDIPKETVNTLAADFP
smiles,measurement,setting,value
Nc1ccn([C@H]2O[C@H](CO)[C@@H](O)C2(F)F)c(=O)n1,Potency,[1],"inconclusive [inhibitor, full curve, poor fit]"
C=C[C@@]1(C)CC[C@H](O)[C@H]2C(=O)CCC[C@H]21,Potency,[2],"inconclusive [inhibitor, partial curve, poor fit]"
O=C1CCC=C1C(O)c1ccccc1 (configuration not stated),Potency,[2],"inconclusive [inhibitor, partial curve, poor fit]"
CC(=O)OCC(=O)[C@@]1(O)CC[C@H]2[C@@H]3CCC4=CC(=O)CC[C@]4(C)[C@H]3C(=O)C[C@@]21C,"activity, negative = inhibition",[3]; at 17.2 µM (top of the series),inactive: 11.3%
same,Potency,[4],"inconclusive [inhibitor, partial curve]"
same,Potency,[5],inactive
same,Potency,[6],inactive
same,Potency,[1],inactive
CC(C)(C)N1C(=O)[C@@H]2[C@H]3[C@H](O)[C@H](O)CC(=NOCc4ccccc4)[C@H]3CC[C@H]2C1=O,Potency,[2],"inconclusive [inhibitor, partial curve, poor fit]"
O=C1c2cc(Br)ccc2O[C@@H](c2ccc3c(c2)OCO3)[C@@H]1O,Potency,[2],inactive
CNc1ncnc2c1ncn2[C@H]1C[C@H](OP(=O)(O)O)[C@@H](COP(=O)(O)O)O1,Potency,[7],"inconclusive [inhibitor, partial curve, poor fit]"
same,Potency,[5],inactive
same,Potency,[1],inactive
same,Potency,[8],inactive
COC(=O)C1=C(C)NC(C)=C([N+](=O)[O-])C1c1ccccc1C(F)(F)F (configuration not stated),Potency,[9],"inconclusive [inhibitor, partial curve]"
same,Potency,[10],"inconclusive [inhibitor, single point]"
same,Potency,[11],inactive
same,Potency,[12],"inconclusive [inhibitor, partial curve, poor fit]"
COc1ccc(-c2cc3ncc(C)n3c(Nc3ncccc3C(N)=O)n2)cc1OC,Potency,[11],"inconclusive [inhibitor, single point]"
same,Potency,[13],active: 1.03 µM
same,Potency,[5],"inconclusive [inhibitor, partial curve, poor fit]"
same,Potency,Papain (Carica papaya),"inconclusive [inhibitor, partial curve]"
CN1CCN(c2nc3cc(C(F)(F)F)ccc3n3cccc23)CC1,"activity, negative = inhibition",[3]; at 38 µM (top of the series),inconclusive: -30.7% [inhibitor]
same,Potency,[14],"inconclusive [activator, partial curve, poor fit]"
same,Potency,[15],"inconclusive [inhibitor, partial curve]"
same,Potency,[4],inactive
same,Potency,[7],"inconclusive [inhibitor, partial curve, poor fit]"
same,Potency,[10],"inconclusive [inhibitor, single point]"
same,Potency,[11],inactive
same,Potency,[16],"inconclusive [cytotoxic, partial curve, poor fit]"
same,Potency,[5],"inconclusive [inhibitor, partial curve, poor fit]"
same,Potency,[17],"inconclusive [inhibitor, partial curve]"
OC[C@H]1O[C@@H](n2cnc3cncnc32)[C@H](O)[C@@H]1O,Potency,[18],"inconclusive [inhibitor, full curve]"
same,Potency,[10],active: 3.29 µM
same,Potency,[13],"inconclusive [inhibitor, single point]"
Cc1cccc(C)c1OCC(N)C(C)C (configuration not stated),Potency,[7],inactive
same,Potency,[9],inactive
same,Potency,[19],"inconclusive [side channel, falling, partial curve]"
COc1ccc(-c2ccc(N)[n+](CCCC(=O)O)n2)cc1,"activity, negative = inhibition",[3]; at 38 µM (top of the series),inconclusive: 49.1% [activator]
same,Potency,[10],"inconclusive [activator, partial curve]"
same,Potency,[17],inactive
same,Potency,Papain (Carica papaya),inactive
same,Potency,[8],inactive
CCN(c1nc(N)c(C(=O)N=C(N)N)nc1Cl)C(C)C,Potency,[15],"inconclusive [inhibitor, partial curve]"
same,Potency,[9],"inconclusive [inhibitor, partial curve]"
same,Potency,[10],"inconclusive [inhibitor, partial curve, poor fit]"
same,Potency,[11],inactive
CC(C)NCC(O)COc1ccc(CC(N)=O)cc1 (configuration not stated),Potency,[9],inactive
same,Potency,[8],inactive
CC(C)(CO)Cc1cc(C(C)(C)C)c(O)c(C(C)(C)C)c1,Potency,[15],inactive
same,Potency,[4],inactive
same,Potency,[7],"inconclusive [inhibitor, partial curve]"
same,Potency,[18],"inconclusive [inhibitor, partial curve]"
same,Potency,[9],"inconclusive [inhibitor, partial curve]"
same,Potency,[12],"inconclusive [inhibitor, partial curve]"
same,Potency,[16],"inconclusive [cytotoxic, single point]"
same,Potency,[5],"inconclusive [inhibitor, partial curve, poor fit]"
same,Potency,[6],active: 1.78 µM
O=c1cc(O)cc(/C=C/c2ccc(O)c(O)c2)o1,Potency,[10],"inconclusive [inhibitor, single point]"
same,Potency,[5],inactive
same,Potency,[6],active: 1.12 µM
same,Potency,Papain (Carica papaya),"inconclusive [inhibitor, single point]"
